Measurements from the supplement of paper PMC3334620.
In all, about 33,000 sequences were measured (“E-score (-0.5 to 0.5)”: median about -0.054, highest 2% from about 0.39 on). The list shows a part of the results.

The sequences below were run against Ylr278c (UniProt Q05854) (assay: PBM E-score (8-mer binding enrichment) (E-score (-0.5 to 0.5)); higher = stronger / more preferred TF binding; most listed sequences are background and not binding sites). Details: protein concentration: 200 nM; construct: GST-DNA-binding domain.
Procedure, shortened: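 Using PURExpress in vitro transcription/translation, GST-tagged yeast transcription factors were made in full-length or DNA-binding-domain form. These were applied at about 100-200 nM to double-stranded universal all-10-mer Agilent arrays, and bound protein was detected with fluorescent anti-GST. Scans were normalised with masliner before the Universal PBM Analysis Suite assigned E-scores to ungapped eight-base words pooled with their reverse complements.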

Sequence | PBM E-score
TCGGGAAA | 0.35
GTCTAATA | -0.16
ATAATCAA | 0.00848
CCATCCGA | 0.0984
ATTTGACA | -0.0871
GCAATTTA | 0.0404
AGAGTGCC | -0.204
CGGCGGAG | 0.461
CTAAGGGC | -0.3
GATCGCTA | -0.0382
GCACTGGA | -0.277
AAAGTAGA | -0.187
CTCGACGA | -0.268
CCTGCTCG | -0.211
GCCAATCC | 0.251
CTCAGGGA | -0.226
ATGCGGCA | 0.0657
ACCGCGGC | 0.305
CAACCTGC | -0.0419
ACTACCGC | 0.0576
AAGGCTCG | -0.164
CCCTTCGG | 0.268
AGACTCCC | -0.167
TGCCTCAA | -0.0367
CACTCCAC | -0.139

Sequence | PBM E-score
AGACTCCT | -0.224
ATCTAGGC | -0.326
TCACGAAA | -0.0706
ACGCTTCG | -0.0176
CGCCGGCC | 0.367
ACTTTCTG | 0.0956
CGACGAAC | 0.151
CGCTTATA | 0.0184
CGTCTTTC | -0.015
AAGCAAAG | -0.195
AGATGCCC | -0.0185
CTGTGTCA | -0.142
GCAGTAGA | -0.167
CCTATTAC | -0.212
CGCGATCA | 0.0483
CTCTCCAC | -0.243
ACGTTTCT | -0.218
GCGAATGA | 0.107
AATCCAAC | -0.204
ACGACCCT | -0.145
CACCTCTG | -0.225
AGGTGGTA | 0.232
AACACACG | -0.0928
TGCACCAA | -0.332
TATGTTCA | -0.0845

Sequence | PBM E-score
AGGCTGCC | -0.106
CATACACC | 0.095
AACGTTGA | -0.0141
CAAGGGTA | -0.136
CGATTGTA | 0.114
ATTGCCTC | -0.0835
CTCGATTA | -0.102
CGGGCGTC | 0.236
CGGAGAGC | 0.389
AGCTAAAT | -0.248
ATATGGCC | 0.027
GAAAACTA | 0.0759
AGAGTTGC | 0.0814
GGAAACAC | 0.213
ACGTGGCT | -0.215
GCAAGGCA | -0.15
AATGCTTG | -0.151
TTGCTAAA | -0.142
GTCCGCCA | 0.293
GCAGATGC | -0.139
AAGCCAAT | 0.0109
CACAGGCG | -0.0948
TAACAAAA | 0.0261
TCGTTGCA | -0.265
GGCCACAC | 0.0375

Sequence | PBM E-score
ACATTGTA | -0.192
GCCGCAGA | 0.143
CATTTCAG | -0.0764
GCTCGCCA | 0.118
ACTGGTAA | -0.0163
GCTCCCAA | -0.214
AAACGTGA | -0.24
AGCAGTTG | 0.0654
ACCAGCTA | -0.265
ATTATCCC | 0.0767
ATGCGCAA | -0.00788
CGTGAAAG | -0.107
ACTGCCCA | -0.151
CTAAGTGC | -0.0901
CCATAGGG | -0.154
GTCTGCGA | -0.207
AGATGATC | -0.1
AGTCGTCG | -0.179
TGCAAGCA | -0.192
CGTCATTC | 0.0753
CATGCTCA | -0.115
AGCCTTCG | -0.241
CATGCCTC | 0.0379
GTAGCTAA | -0.0284
CAGGCAGA | -0.208

Sequence | PBM E-score
CTAGCGGC | 0.0333
GCCGCGTA | 0.144
AGTAGGCC | -0.0194
AACTGGTC | -0.13
AGAGGGTG | -0.101
CGAGGATA | -0.0254
ATCGTGGA | -0.131
GAAGCGAC | 0.00481
AAGCCTAT | -0.0687
AACCAAGG | -0.12
GCCTCAAA | 0.0285
AAAGGCGT | -0.123
CTGCAGGC | -0.0424
GCTAAACA | -0.13
CTATGCCA | -0.313
GGTTATAA | 0.00528
CAACCACG | -0.0753
CGTAGTTC | 0.0309
GGTTAAAC | -0.0116
ATTTGGGC | -0.125
GCCGAGGC | 0.262
CGAGCACG | 0.117
AGCGAGAT | 0.102
ATCGCTTC | 0.0849
CTTAAGGC | -0.0736

Sequence | PBM E-score
GCAAACCA | -0.11
ATCCTAGG | -0.156
CCTACAGA | -0.256
ACCCCGGT | 0.385
CTGGAGCC | 0.0766
AATGGGGT | -0.0839
CAGATCTC | 0.00836
AGGCTCCC | -0.0902
AACCAAAC | -0.0774
AGCACACC | -0.0307
ACCAAAAA | 0.15
ATTTAGGC | -0.113
GACGTCTC | -0.157
GAGTGAAA | 0.0457
TCCAACCA | -0.0655
ATCTAGGG | -0.295
ATCGTGCC | -0.0594
CTGAGCAA | -0.205
CCTTGCAC | -0.0997
GAACGTTC | -0.0972
GAGCGTAC | -0.215
ATTGCCAC | -0.149
AGCGATTA | -0.0841
AGCCGAAG | 0.0537
ATCCATGA | -0.236

Sequence | PBM E-score
CAGGACCA | 0.0244
CCGTGGCC | 0.0234
CTGAAAAG | -0.131
CGTCCGCC | 0.319
GATGCGGA | 0.365
CCTGGAAC | -0.237
GGGTGCAC | -0.0684
CCAGATCA | -0.0898
GTCTCTCA | -0.167
ATAATACC | 0.0972
AGGTCAAC | -0.208
CCTGGCCA | -0.185
ATCGTCGA | -0.239
GCTAGAAC | -0.169
GGGCTGCA | -0.00859
GGCTGTAC | -0.0996
ATCGACCC | 0.0346
AAGGATGG | -0.0635
GGTAATGA | 0.0715
CAAATTAG | -0.0614
AAATGTTA | -0.114
ACTGTCCC | 0.0353
